# Reference: PubChem BioAssay AID938 (National Center for Advancing Translational Sciences (NCATS), 2007)
# Several values for one entry are separate records, joined by “and”; a condition that tells them apart may be missing. Equal entries are not always repeated. In all, about 73,000 compounds went through this assay and about 1,800 (2.5%) were called active. Inconclusive results, whose numbers are uncertain, are shown with a selection of clear calls. The call rests on the fitted dose curve; in most records, active means well fitted activation curve with a large enough effect; inconclusive means small, poorly fitted or top-dose-only effect; inactive means no such curve, though single readings can be large or run the other way. Potencies of inconclusive entries are left out as doubtful fits.
# Assay: qHTS Assay for Agonists of the Thyroid Stimulating Hormone Receptor: Activators of Intracellular cAMP Concentrations in Parental HEK 293; further: nearly all actives have a fitted effect of over 55% in size; on activation: % of control where 0% means no effect
# Conditions: parental HEK293 CNG cAMP sensor, membrane potential fluorescence; activation: at 57.1 µM (top of the series) unless noted
# Procedure, shortened: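 Counterscreen for endogenous-receptor signalling: CNG-channel HEK 293 cells report cAMP rise by membrane depolarization. After 60 min dye equilibration with 100 uM RO 20-1724, compounds incubated 30 min before bottom-read fluorescence at 590 nm.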
# Potency means the concentration at half of the fitted maximal effect; tags describe the fitted curve by direction and shape.
Compound,activation,Potency
COCC(=O)N1CCC[C@@]2(CCN(Cc3nccs3)C2)C1,inactive: -1.04%,
Cn1c(=O)n(Cc2ccccc2)c(=O)c2c1nc1n2CCCN1C1CCCCC1,inactive: -50.3%,
COc1cc(OC)c(C2=NOC(C(=O)NCc3ccc4c(c3)OCO4)C2)cc1Cl (stereo not drawn),,"inconclusive [activator, partial curve]"
COc1ccc(NC(=O)CC2SC(=NCc3ccccc3OC)NC2=O)cc1 (stereo not drawn),,"inconclusive [activator, single point]"
O=c1c2ccccc2c2ccccc2c(=O)n1Cc1ccco1,inactive: 0.0298%,
CCCc1cc(=O)oc2cc3occ(C)c3cc12,,"inconclusive [activator, full curve]"
CCN(Cc1ccccc1)C(c1ccncc1)c1nnnn1C(C)(C)C (stereo not drawn),,"inconclusive [activator, partial curve]"
COc1ccc(-c2cn3c(C)c(C(=O)NCCN4CCOCC4)sc3n2)cc1,inactive: 0.0534%,
COC(=O)C1=C(C)NC(=O)CC1c1cccc(Cl)c1Cl (stereo not drawn),,"inconclusive [activator, single point]"
C#CCOc1ccc2c(C)cc(=O)oc2c1,,"inconclusive [activator, partial curve]"
COc1ccc2c(c1)C(=O)N(c1ccccc1OC)C(=O)C2(C)C,inactive: -3.8%,
O=C(O)CCC(=O)c1ccc2c(c1)OCCO2,,active: 20 µM
CCCCNC(=O)CC1N=C2c3ccccc3N=C(SCC(=O)Nc3ccccc3C)N2C1=O (stereo not drawn),,"inconclusive [activator, partial curve]"
CCOc1ccc(N2CC(C(=O)Oc3ccccc3)CC2=O)cc1 (stereo not drawn),,"inconclusive [activator, single point]"
CN(C)c1ncc2nc(-c3cccs3)c(=O)n(C3CC3)c2n1,inactive: 8.66%,
Cc1ccc(NC2=Nc3ccccc3CS2)cc1,inactive: -8.7%,
Cn1c(=O)c(CCc2ccccc2)nc2cnc(Oc3ccccc3)nc21,,"inconclusive [activator, partial curve]"
CCc1cc2c(NCc3ccco3)ncnc2s1,,"inconclusive [activator, single point]"
Fc1ccc(-c2nnc(-c3ccc(Cl)cc3)o2)cc1,,"inconclusive [activator, full curve, poor fit]"
Cn1c(=O)c2c(nc(CN3CCc4ccccc4C3)n2Cc2ccccc2F)n(C)c1=O,,"inconclusive [activator, single point]"
O=C(Nc1ccc(CN2CCCCC2)cc1)c1ccc2c(c1)OCO2,inactive: 12.4%,
CCOC(=O)CCN1C(=O)[C@H]2[C@@H]3[C@H](O)[C@H](O)CC(=O)[C@H]3CC[C@H]2C1=O,inactive: -3.46% [at 11.4 µM] and inactive: 3.03% [at 11.4 µM],
O=C(CSc1nnc(-c2cnccn2)n1Cc1ccco1)c1ccc2ccccc2c1,,"inconclusive [activator, partial curve]"
Cc1cc(NC(=O)CSc2nc(C(C)C)nc3sc(C)c(C)c23)no1,,"inconclusive [activator, partial curve, poor fit]"
Cc1cc(C)cc(-n2ccnc2SCC(=O)Nc2ccc3c(c2)OCCO3)c1,,"inconclusive [activator, full curve, poor fit]"

Compound,activation,Potency
Nc1ccc2oc(=O)c3ccccc3c2c1,inactive: -15.3%,
Cn1c(NC(=O)c2ccc(C(C)(C)C)cc2)cc(=O)n(C)c1=O,,"inconclusive [activator, full curve]"
COc1ccc(-c2nc(C#N)c(NCc3ccc(C)cc3)o2)cc1OC,inactive: -1.8%,
O=C(Nc1ccc(-c2nc3cccnc3s2)cc1)c1ccco1,,"inconclusive [activator, single point]"
COc1ccc(NC(=O)c2nc3nc(C)cc(C(F)F)n3n2)cc1OC,inactive: -3.66%,
COc1ccc(Cn2nnnc2C(c2ccccc2Cl)N2CCN(C)CC2)cc1 (stereo not drawn),,"inconclusive [activator, full curve, poor fit]"
CC1=CC(C)(C)N=C(NC#N)N1,,"inconclusive [activator, single point]"
CCn1c(Cc2ccccc2)nnc1SCC(=O)Nc1nnc(-c2ccccc2)s1,,"inconclusive [activator, single point]"
CCc1ccc2oc(-c3cc(N)cc(C)c3O)nc2c1,inactive: -14.3%,
Cc1nc2nc(-c3ccccc3)cn2nc1C,,"inconclusive [activator, single point]"
COc1cc(-c2nnn(CC(=O)NC3CCS(=O)(=O)C3)n2)ccc1OCc1ccccc1 (stereo not drawn),inactive: -8.06%,
O=C(O)CCOc1ccc2c(c1)OCCO2,,"inconclusive [activator, partial curve]"
CCn1c(N2CCN(CC(=O)c3c[nH]c4ccccc34)CC2)nc2c1c(=O)[nH]c(=O)n2C,inactive: -4.38%,
COC(=O)c1ccccc1NC(=O)c1cccs1,,"inconclusive [activator, single point]"
CCOc1ccc(N(CC(=O)NC2CCCC(C)C2C)S(=O)(=O)c2c(C)noc2C)cc1 (stereo not drawn),,"inconclusive [activator, full curve]"
N#CCCN1CCN(C(=S)c2ccc(-c3cc(Cl)ccc3Cl)o2)CC1,,"inconclusive [activator, single point]"
O=C(O)CCSc1nc2ccc(Br)cc2[nH]1,inactive: 7.2%,
COc1ccc(OCCCSc2ncccn2)cc1,inactive: 6.53%,
O=C(COC(=O)c1ccc[nH]c1=O)c1ccc(Cl)s1,,"inconclusive [activator, single point]"
CS(=O)(=O)N1CCC[C@@]2(CCN(Cc3ccc(C#N)cc3)C2)C1,inactive: 13.1%,
COc1ccc(CNc2ncncc2-c2ccccc2Cl)c(OC)c1,,active: 31.6 µM
COC(C(C)/C=C/CC(=O)OCCCc1ccccc1)C1CCCCC1 (stereo not drawn),inactive: 10.5% [at 11.4 µM],
CCOC(=O)c1sc2nc(-c3ccco3)c3c(c2c1N)CC(C)(C)OC3,inactive: 2.29%,
O=C(Nc1ccc(Cl)cc1)N1CCN(c2ccc3nnc(-c4ccc(F)cc4)n3n2)CC1,,active: 25.1 µM
COc1cccc(C2c3c(oc4ccc(F)cc4c3=O)C(=O)N2CCCN2CCOCC2)c1 (stereo not drawn),,"inconclusive [activator, single point]"

Compound,activation,Potency
CCc1nc(SCC(=O)N2CCC(C)CC2)c2c(=O)n(C)c(=O)n(C)c2n1,,"inconclusive [activator, single point]"
Clc1ccc(-c2nnc(NC3=NCCCCC3)o2)cc1,inactive: -0.675%,
CCCOc1cccc(C(=O)Nc2cccc(NC(=O)c3ccco3)c2)c1,,"inconclusive [activator, single point]"
C=CCN1C(=O)C2(/C(=C(\O)c3ccc4c(c3)OCCO4)C(=O)C(=O)N2CCCOC)c2ccccc21 (stereo not drawn),,"inconclusive [activator, single point]"
COc1cccc(-c2nccc(-n3ccnc3)n2)c1,inactive: -9.17%,
O=C1c2ccccc2-c2n[nH]c3cccc1c23,,"inconclusive [activator, single point]"
Cc1cccc2sc(NC(=O)C3CCCO3)nc12 (stereo not drawn),inactive: 24.6%,
Cc1ccc(C(=O)Nc2ccccc2N2CCN(C(=O)C(C)C)CC2)cc1C,,"inconclusive [activator, partial curve]"
CCCc1nc2oc3c(NCCN(C)C)ncnc3c2c2c1CCCC2,,"inconclusive [activator, partial curve]"
Cc1cc(OCC(=O)C(C)(C)C)c2c(C)c(C)c(=O)oc2c1,,"inconclusive [activator, partial curve]"
COC(=O)[C@@]1(Cc2ccc(OC)cc2)[C@H]2c3cc(C(=O)N(C)C)n(Cc4ccc(OC(F)(F)F)cc4)c3C[C@H]2CN1C(=O)c1ccccc1,,"inconclusive [activator, partial curve]"
COc1ccccc1NS(=O)(=O)c1ccc(NC(C)=O)cc1,inactive: -1.35%,
CN(C)S(=O)(=O)c1cccc(-c2nnc(SCc3ccc4c(c3)OCCO4)o2)c1,,"inconclusive [activator, partial curve]"
Cc1ccccc1-n1nc2c(c1NC(=O)c1cc3ccccc3oc1=O)CS(=O)C2 (stereo not drawn),inactive: -9.35%,
O=C(Nc1cc(C(F)(F)F)ccc1N1CCCCC1)c1ccco1,,"inconclusive [activator, partial curve]"
CCCn1c(C)nc2c(c1=O)c1nc3ccccc3nc1n2CCC1=CCCCC1,,active: 20 µM
CCOC(=O)C1C2C=CC3(CN(c4ccccc4CC)C(=O)C13)O2 (stereo not drawn),,"inconclusive [activator, partial curve]"
CCOC(=O)CC(=O)CSc1nnc(Cn2c(=O)sc3ccccc32)n1C,,"inconclusive [activator, single point]"
COc1ccc(-c2nc3cnc(OC)nc3n(-c3ccc(OC)cc3)c2=O)cc1,inactive: 12%,
COc1cc(C(c2sc3nc(C)nn3c2O)N2CCN(c3ccccc3)CC2)cc(OC)c1OC (stereo not drawn),,"inconclusive [activator, single point]"
Cn1c(SCc2cccc(C(F)(F)F)c2)nnc1-c1ccco1,,"inconclusive [activator, partial curve, poor fit]"
O=C(Nc1cccc(F)c1)N1CC[C@@]2(CCCN(C(=O)c3cccc(F)c3)C2)C1,,"inconclusive [activator, partial curve]"
CC1(C)CC(=O)C2=C(C1)NC(SCC(=O)Nc1ccccc1)=C(C#N)C2c1ccco1 (stereo not drawn),,active: 15.8 µM
